The values below come from PubChem BioAssay (EPA / NIEHS).

By AC50 is commonly meant the concentration giving half of the maximal activity seen.

This is a selection; strong and weak results do not stand in their true shares. Inconclusive results are not listed. Active and inactive are the calls of the source. Rule for the calls, unless noted: active = hit-call score of the fitted dose curve at least 0.9, where 1 is the maximum; inactive = score below 0.9.

Read-out in experiment [1]: Vascular endothelial growth factor receptor 2 (Homo sapiens) (UniProt P35968)
The experiment in a line: BSK_4H_VEGFRII: BioMAP Diversity Plus: 4H Assay for Vascular endothelial growth factor receptor 2 (VEGFR2) Biomarker Activity (AID 2283031). The settings on record: actives raise or lower the signal; primary human endothelial cells (HUVEC). Put shortly: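 VEGFRII levels on human vascular endothelial primary cells were determined by ELISA at 24 hours post-dosing, with gain- or loss-of-signal fitted against DMSO controls.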

Read-out in experiment [2]: Vascular cell adhesion molecule 1 (VCAM1), VCAM1 (gene 7412)
As to the kind of experiment: BSK_4H_VCAM1: BioMAP Diversity Plus: 4H Assay for Vascular cell adhesion molecule 1 (VCAM1) Biomarker Activity (AID 2283033).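 For outcome: cell-surface VCAM-1 protein measured by ELISA.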 The note with it: actives raise or lower the signal; primary human endothelial cells (HUVEC). Put shortly: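 Chemicals are added to primary human umbilical vein endothelial cells. After 24 h, VCAM-1 levels are measured by ELISA. Values come from bidirectional fitting referenced to DMSO.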

Read-out in experiment [3]: Interleukin-1 alpha (IL1a), IL1A (gene 3552)
The experiment in a line: BSK_KF3CT_IL1a: BioMAP Diversity Plus: KF3CT Assay for Interleukin-1 alpha (IL1a) Biomarker Activity (AID 2283070). The settings on record: actives raise or lower the signal; primary human keratinocytes with fibroblasts. Summed up: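 Primary skin co-culture (keratinocytes, foreskin fibroblasts), 24 h exposure; ELISA for IL-1a; bidirectional curve fit vs DMSO.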

Read-out in experiment [4]: Transforming growth factor beta 1 (TGFb1), TGFB1 (gene 7040)
As to the kind of experiment: BSK_KF3CT_TGFb1: BioMAP Diversity Plus: KF3CT Assay for Transforming growth factor beta 1 (TGFb1) Biomarker Activity (AID 2283072). The note with it: actives raise or lower the signal; primary human keratinocytes with fibroblasts. Summed up: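 KF3CT co-culture (keratinocytes + fibroblasts), 24 h exposure → TGF-b1 ELISA → bidirectional fit, DMSO = baseline. Parallel SRB total-protein staining (0.1% SRB, 10% TCA fixation, 560 nm) for cytotoxicity.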

Read-out in another experiment: CD69, CD69 (gene 969)
The experiment in a line: BSK_SAg_CD69: BioMAP Diversity Plus: SAg Assay for CD69 Biomarker Activity (AID 2283089).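 Note: cell surface CD69 protein quantified by ELISA with fluorescence detection.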 The note with it: actives raise or lower the signal; primary human HUVEC with PBMC. Summed up:
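Endothelial/PBMC co-culture; chemical added; 24 h incubation; CD69 ELISA with fluorescence detection; bidirectional fit vs DMSO.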

Experiment [5] deals with rat CYP2C11, Cyp2c11 (gene 29277) (UniProt P08683). As to the kind of experiment: NVS_ADME_rCYP2C11: NovaScreen (NVS) CYP450-related Enzyme Activity (ADME) Assay for rat CYP2C11 (AID 2283118; active = hit-call score of the fitted dose curve at least 0.9, where 1 is the maximum). The procedure: NVS_ADME_rCYP2C11 is a biochemical, single-readout assay that uses extracted gene-proteins in a cell-free assay. Measurements were taken 0.33 hour after chemical dosing in a 96-well plate.NVS_ADME_rCYP2C11 is one of one assay component(s) measured or calculated from the NVS_ADME_rCYP2C11 assay. It is designed to make measurements of enzyme activity, a form of enzyme reporter, as detected with fluorescence intensity signals by Fluorescence technology.Data from the assay component NVS_ADME_rCYP2C11 was analyzed into 1 assay endpoint. This assay endpoint, NVS_ADME_rCYP2C11, was analyzed in the positive analysis fitting direction relative to Acetonitrile as the negative control and baseline of activity. Using a type of enzyme reporter, loss-of-signal activity can be used to understand changes in the enzymatic activity as they relate to the gene Cyp2c11. Furthermore, this assay endpoint can be referred to as a primary readout, because this assay has produced multiple assay endpoints where this one serves a enzymatic activity function. To generalize the intended target to other relatable targets, this assay endpoint is annotated to the cyp intended target family, where the subfamily is xenobiotic metabolism. […]
Chain of UniProt P08683 (P08683 whole entry, looked up): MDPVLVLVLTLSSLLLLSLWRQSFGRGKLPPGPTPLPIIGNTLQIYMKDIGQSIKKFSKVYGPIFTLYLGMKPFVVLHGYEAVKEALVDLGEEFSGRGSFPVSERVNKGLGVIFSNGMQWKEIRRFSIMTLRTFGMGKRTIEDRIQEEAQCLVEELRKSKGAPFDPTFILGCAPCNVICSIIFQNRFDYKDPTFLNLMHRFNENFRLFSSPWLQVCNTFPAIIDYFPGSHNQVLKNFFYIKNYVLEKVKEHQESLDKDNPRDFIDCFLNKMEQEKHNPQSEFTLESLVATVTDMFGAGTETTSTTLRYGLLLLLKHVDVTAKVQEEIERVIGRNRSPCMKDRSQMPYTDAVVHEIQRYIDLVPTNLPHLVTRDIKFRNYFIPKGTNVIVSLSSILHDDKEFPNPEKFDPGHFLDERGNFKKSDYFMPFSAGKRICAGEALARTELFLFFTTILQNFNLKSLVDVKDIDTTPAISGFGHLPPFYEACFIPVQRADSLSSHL

Experiment [6] has as its target Cellular tumor antigen p53 (Homo sapiens) (UniProt P04637). As to the kind of experiment: TOX21_p53_BLA_p2_ratio: Tox21 HCT-116 p53 Agonism Beta-lactamase Assay, Ratio, Phase 2 (AID 2283592; active = hit-call score of the fitted dose curve at least 0.9, where 1 is the maximum). Put shortly: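 Cleaved-to-uncleaved substrate ratio (460 vs 530 nm) measured in HCT116 cells with an inducible beta-lactamase reporter linked to p53 activity. Compounds incubated 16 h at 37C before 2 h room-temperature CCF4-AM loading.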
Chain of UniProt P04637 (P04637 whole entry, looked up): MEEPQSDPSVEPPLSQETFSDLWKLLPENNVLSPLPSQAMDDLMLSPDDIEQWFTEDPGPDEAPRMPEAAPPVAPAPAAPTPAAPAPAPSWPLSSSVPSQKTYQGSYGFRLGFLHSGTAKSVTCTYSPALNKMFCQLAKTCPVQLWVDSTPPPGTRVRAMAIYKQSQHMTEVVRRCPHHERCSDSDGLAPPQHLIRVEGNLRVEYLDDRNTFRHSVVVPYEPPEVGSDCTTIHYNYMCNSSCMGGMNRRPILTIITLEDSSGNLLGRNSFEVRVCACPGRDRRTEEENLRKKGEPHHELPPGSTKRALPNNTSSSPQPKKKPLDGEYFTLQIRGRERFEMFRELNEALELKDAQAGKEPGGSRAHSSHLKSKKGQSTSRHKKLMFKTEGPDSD

Read-out in experiment [7]: Interferon-gamma inducible Protein 10 (IP10), CXCL10 (gene 3627)
As to the kind of experiment: BSK_BE3C_IP10: BioMAP Diversity Plus: BE3C Assay for Interferon-gamma inducible Protein 10 (IP10) Biomarker Activity (AID 2283034). The note with it: actives raise or lower the signal; primary human bronchial epithelial cells. Summed up:
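IP-10 quantified by ELISA serves as the endpoint. Cells: primary human bronchial epithelium, read 24 h after compound addition. Activity is derived by bidirectional fitting with DMSO as negative control.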

Read-out in experiment [8]: Plasminogen activator inhibitor-1 (PAI1), SERPINE1 (gene 5054)
The experiment in a line: BSK_BE3C_PAI1: BioMAP Diversity Plus: BE3C Assay for Plasminogen activator inhibitor-1 (PAI1) Biomarker Activity (AID 2283037). The settings on record: actives raise or lower the signal; primary human bronchial epithelial cells. Summed up:
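Values derive from bidirectional fitting against DMSO baseline of PAI-1 levels, measured by ELISA in human bronchial epithelial cells 24 h after compound addition.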

Experiment [9] is described as follows: BSK_CASM3C_SRB: Viability Assessment in the BioMAP Diversity Plus: CASM3C Assay (AID 2283050). The note with it: primary human coronary artery smooth muscle cells.
Read-out in experiment [10]: Monokine induced gamma interferon (MIG), CXCL9 (gene 4283)
The experiment in a line: BSK_hDFCGF_MIG: BioMAP Diversity Plus: hDFCGF Assay for Monokine induced gamma interferon (MIG) Biomarker Activity (AID 2283063). The note with it: actives raise or lower the signal; primary human foreskin fibroblasts. Put shortly: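 MIG signal, determined by ELISA, reflects 24 h chemical exposure of human skin primary fibroblasts. DMSO serves as negative control and baseline.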

Read-out in another experiment: CD40, CD40 (gene 958)
The experiment in a line: BSK_LPS_CD40: BioMAP Diversity Plus: LPS Assay for CD40 Biomarker Activity (AID 2283076). The settings on record: actives raise or lower the signal; primary human HUVEC with PBMC. Put shortly: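 CD40 signal, measured by ELISA, is fitted in both directions relative to DMSO vehicle. The system is an LPS-driven human vascular primary co-culture of endothelial cells and PBMC, sampled 24 h after compound addition.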

Read-out in experiment [11]: Macrophage colony-stimulating factor (MCSF), CSF1 (gene 1435)
The experiment in a line: BSK_LPS_MCSF: BioMAP Diversity Plus: LPS Assay for Macrophage colony-stimulating factor (MCSF) Biomarker Activity (AID 2283083). The note with it: actives raise or lower the signal; primary human HUVEC with PBMC. Summed up: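 Compound is added to a human vascular primary co-culture of umbilical vein endothelium and blood mononuclear cells. After 24 h, M-CSF is quantified by ELISA. Signal changes are fitted in both directions against DMSO.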

In the case of `CC(=O)[C@H]1CC[C@H]2[C@@H]3CCC4=CC(=O)CC[C@]4(C)[C@H]3CC[C@]12C`, the outcome in [1], in [2], in experiment [3], in experiment [4] and in experiment [6] was inactive. In addition, the AC50 with CD69, CD69 (gene 969) was active: 26.7 µM; in experiment [5], active: 5.49 µM.
In the case of `Oc1c(Cl)cc(Cl)cc1Sc1cc(Cl)cc(Cl)c1O`, the AC50 in [2] was active: 11.9 µM; in [7], active: 6.16 µM; in experiment [8], active: 4.74 µM; in experiment [9], active: 18.7 µM; in experiment [10] it was active: 2.07 µM; with CD40, CD40 (gene 958), active: 16 µM. Moreover, the AC50 in experiment [11] is active: 20 µM.
